At least one read-out could not be matched to a standard name with certainty.
Test system: acetyl-tubulin (AcTub) in HEK/QBI 293 cells
Assay: Microtubule stabilization assay: acetyl-tubulin (AcTub) ELISA after compound treatment
Format: cell-based
Conditions: 4 h treatment, at the dose of maximal effect, relative to control
Description: (§1) The MT-stabilizing properties of triazolopyrimidines was investigated in a cell-free MT-polymerization assay, as well in a cell-based assay (HEK/QBI 293 cells) that measures changes in acetyl-tubulin (AcTub), a biomarker of stable MTs. (Laferriere, N.; MacRae, T.; Brown, D. Tubulin synthesis and assembly in differentiating neurons. Biochemistry and Cell Biology 1997, 75, 103-117; Black, M.; Baas, P.; Humphries, S. Dynamics of alpha-tubulin deacetylation in intact neurons. J Neurosci 1989, 9, 358).
as §1, with “properties of additional triazolopyrimidines, phenylpyrimidines, and pyridazines was investigated” for “properties of triazolopyrimidines was investigated”, “well in the aforementioned cell-based assay” for “well in a cell-based assay”, “of stable MTs (Laferriere, N.;” for “of stable MTs. (Laferriere, N.;”
The HEK293 cell subclone, QBI293, was maintained in DMEM supplemented with 10% fetal calf or bovine serum, 1% penicillin/streptomycin antibiotic solution and 1% glutamine at 37° C. in 5% CO2. Cells were plated into 6-well plates at a density of 800,000 cells/well. […] Test compounds were added at multiple concentrations to the test wells and incubated for 4 h. Subsequently, the media was removed and the cells were washed with 1 ml of ice-cold phosphate-buffered saline (PBS). After removal of PBS, 0.2 ml of ice-cold RIPA (0.5% sodium deoxycholate, 0.1% SDS, 1% NP-40, 5 mM EDTA, pH 8.0) containing protease inhibitor mix (1 μg/ml each of pepstatin, leupeptin, TLCK, TPCK and trypsin inhibitor), 1 mM PMSF and 1 μM trichostatin A was added to the wells. The wells were then scraped using a cell scraper and pipetted into 1.5 ml microfuge tubes. The tubes were sonicated with a handheld sonicator at 20× on a power setting of 2, followed by centrifugation for 30 min at 15,000 rpm at 4° C. Supernatants were removed and quantified for protein concentration and the acetyl-tubulin levels were determined using an ELISA as described.
384-well plates were coated with 12G10α-tubulin antibody (Developmental Studies Hybridoma Bank at the University of Iowa; 10 μg/ml) in 30 μl of cold 0.1 M bicarbonate buffer. After overnight incubation at 4° C., the plates were washed with cold PBS, followed by the addition of Block-Ace solution and overnight incubation at 4° C. The blocking solution was removed and 10 μl of EC buffer (0.02 M sodium phosphate, pH 7.0, 2 mM EDTA, 0.4 M NaCl, 0.2% bovine serum albumin, 0.05% CHAPS, 0.4% BlockAce and 0.05% NaN3) was added to each well. Cell culture supernatants were diluted in EC buffer to final protein concentrations of 9, 3, 1.5 and 0.5 μg/30 μl, and 30 μl of each were added to wells in duplicate and plates were subsequently sealed. After overnight incubation at 4° C., the plates were aspirated and washed with cold PBS containing 0.05% Tween-20 and 0.05% thimerisol (PBS-Tween buffer), followed by addition of 30 μl/well of HRP-conjugated acetyl-tubulin antibody (6-11B-1 antibody from Sigma-Aldrich) that was prepared with a Peroxidase Labeling Kit following the manufacturer's instructions that was subsequently diluted 1:1000 in C buffer (0.02 M sodium phosphate, pH 7.0, 2 mM EDTA, 0.4 M NaCl, 1% bovine serum albumin and 0.05% thimerisol). The plates were incubated at room temperature for 4 h on a platform rocker, followed by washing with cold PBS-Tween buffer. Peroxidase substrate solution (30 μl) was added and the reaction was quenched after 5-10 min by addition of 30 μl of 10% phosphoric acid. Plates were read on a SpectraMax M5 plate reader at 450 nm. Because an acetyl-tubulin standard is not available, all data were normalized to a control treatment condition (e.g., no compound addition).

| SMILES | Fold-Increase in AcTub |
| --- | --- |
| Cc1nnc(Cl)c(-c2c(F)cc(F)cc2F)c1-c1ccc(Cl)s1 [CNDR-51566, 3-Chloro-5-(5-chlorothiophen-2-yl)-6-methyl-4-(2,4,6-trifluorophenyl)pyridazine] | 2.5 fold |
| C[C@H](Nc1nc(-c2ccccn2)nc(Cl)c1-c1c(F)cc(OCCCN(C)C)cc1F)C(F)(F)F [CNDR-51561, (S)-6-Chloro-5-(4-(3-(dimethylamino)propoxy)-2,6-difluorophenyl)-2-(pyridin-2-yl)-N-(1,1,1-trifluoropropan-2-yl)pyrimidin-4-amine] | 6.1 fold |
| CN(C)CCCOc1cc(F)c(-c2c(Cl)nc(-c3ccccn3)nc2NCC(F)(F)F)c(F)c1 [CNDR-51557, 6-Chloro-5-(4-(3-(dimethylamino)propoxy)-2,6-difluorophenyl)-2-(pyridin-2-yl)-N-(2,2,2-trifluoroethyl)pyrimidin-4-amine] | 3.2 fold |
| CNC1CC(Oc2cc(F)c(-c3c(Cl)nc4ncnn4c3N[C@@H](C)C(F)(F)F)c(F)c2)C1 (stereo partly drawn) [CNDR-51556, (S)-5-Chloro-6-(2,6-difluoro-4-(3-(methylamino)cyclobutoxy)phenyl)-N-(1,1,1-trifluoropropan-2-yl)-[1,2,4]triazolo[1,5-a]pyrimidin-7-amine] | 10.2 fold |
| Cc1nnc(Cl)c(-c2c(F)cc(F)cc2F)c1-c1ccc(Cl)cc1 [CNDR-51565, 3-chloro-5-(4-chlorophenyl)-6-methyl-4-(2,4,6-trifluorophenyl)pyridazine] | 4.6 fold |
| CNCCCOc1cc(F)c(-c2c(Cl)nc3ncnn3c2N[C@@H](C)C(F)(F)F)c(F)c1 [CNDR-51533, (S)-5-Chloro-6-(2,6-difluoro-4-(3-(methylamino)propoxy)phenyl)-N-(1,1,1-trifluoropropan-2-yl)-[1,2,4]triazolo[1,5-a]pyrimidin-7-amine, reference compound] | 4.7 fold |
| C[C@H](Nc1nc(-c2cnccn2)nc(Cl)c1-c1c(F)cc(F)cc1F)C(F)(F)F [CNDR-51549, (S)-6-chloro-2-(pyrazin-2-yl)-5-(2,4,6-trifluorophenyl)-N-(1,1,1-trifluoropropan-2-yl)pyrimidin-4-amine] | 3.0 fold |
| C[C@H](Nc1c(-c2c(F)cc(OCCCF)cc2F)c(Cl)nc2ncnn12)C(F)(F)F [CNDR-51588, (S)-5-Chloro-6-(2,6-difluoro-4-(3-fluoropropoxyl)phenyl)-N-(1,1,1-trifluoropropan-2-yl)-[1,2,4]triazolo[1,5-a]pyrimidin-7-amine] | 3.2 fold |
| CC(=O)NCCCOc1cc(F)c(-c2c(Cl)nc3ncnn3c2N[C@@H](C)C(F)(F)F)c(F)c1 [CNDR-51589, (S)—N-(3-(4-(5-chloro-7-((1,1,1-trifluoropropan-2-yl)amino)-[1,2,4]Triazolo[1,5-a]pyrimidin-6-yl)-3,5-difluorophenoxy)propyl)acetamide] | 10.2 fold |
| C[C@H](Nc1c(-c2c(F)cc(OCCCO)cc2F)c(Cl)nc2ncnn12)C(F)(F)F [CNDR-51567, (S)-3-(4-(5-chloro-7-((1,1,1-trifluoropropan-2-yl)amino)-[1,2,4]Triazolo[1,5-a]pyrimidin-6-yl)-3,5-difluorophenoxy)propan-1-ol] | 10.1 fold |
| C[C@H](Nc1c(-c2c(F)cc(OCCCCl)cc2F)c(Cl)nc2ncnn12)C(F)(F)F [CNDR-51591, (S)-5-Chloro-6-(4-(3-chloropropoxy)-2,6-difluorophenyl)-N-(1,1,1-trifluoropropan-2-yl)-[1,2,4]triazolo[1,5-a]pyrimidin-7-amine] | 3.7 fold |
| C[C@H](Nc1nc(-c2cnccn2)nc(Cl)c1-c1c(F)cc(OCCCN(C)C)cc1F)C(F)(F)F [CNDR-51554, (S)-6-Chloro-5-(4-(3-(dimethylamino)propoxy)-2,6-difluorophenyl)-2-(pyrazin-2-yl)-N-(1,1,1-trifluoropropan-2-yl)pyrimidin-4-amine] | 4.9 fold |
| C[C@H](Nc1c(-c2c(F)cc(OCCCN(C)C)cc2F)c(Cl)nc2ncnn12)C(F)(F)F [CNDR-51555, (S)-5-Chloro-6-(4-(3-(dimethylamino)propoxy)-2,6-difluorophenyl)-N-(1,1,1-trifluoropropan-2-yl)-[1,2,4]triazolo[1,5-a]pyrimidin-7-amine] | 21.5 fold |
| C[C@H](Nc1nc(-c2ccccn2)nc(Cl)c1-c1c(F)cc(F)cc1F)C(F)(F)F [CNDR-51552, (S)-6-chloro-2-(pyridin-2-yl)-5-(2,4,6-trifluorophenyl)-N-(1,1,1-trifluoropropan-2-yl)pyrimidin-4-amine] | 3.7 fold |
| CC(=O)N(C)CCCOc1cc(F)c(-c2c(Cl)nc3ncnn3c2N[C@@H](C)C(F)(F)F)c(F)c1 [CNDR-51593, (S)—N-(3-(4-(5-chloro-7-((1,1,1-trifluoropropan-2-yl)amino)-[1,2,4]Triazolo[1,5-a]pyrimidin-6-yl)-3,5-difluorophenoxy)propyl)-N-methylacetamide] | 1.9 fold |
| CNCCCOc1cc(F)c(-c2c(Cl)nc3ncnn3c2NCC(F)(F)F)c(F)c1 [CNDR-51534, 5-Chloro-6-(2,6-difluoro-4-(3-(methylamino)propoxy)phenyl)-N-(2,2,2-trifluoroethyl)-[1,2,4]triazolo[1,5-a]pyrimidin-7-amine] | 7.2 fold |
